PubChem BioAssay AID485294 (National Center for Advancing Translational Sciences (NCATS), 2010)
Hit rate of the full screen: of about 370,000 compounds, about 150 (0.041%) were called active. Inconclusive results, whose numbers are uncertain, are shown with a selection of clear calls. Calls follow the shape of the dose curve; as a rule, active = well fitted inhibition curve with a large enough effect; inconclusive = small, poorly fitted or top-dose-only effect; inactive = flat fitted curve, though single readings scatter. Potencies of inconclusive entries are left out as doubtful fits.

target: Beta-lactamase (Escherichia coli (strain K12)) (UniProt P00811); test: qHTS Inhibitors of AmpC Beta-Lactamase (assay with detergent); settings: AmpC hydrolysis of nitrocefin, absorbance 480 nm, 0.01% Triton; activity change, negative = inhibition: at 114 µM (top of the series); also: nearly all actives have a fitted effect of over 25% in size;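 as to activity change, negative = inhibition: 0% = no-compound wells and -100% = no-enzyme wells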
Outline: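 AmpC (5.3 nM in the dispensed reagent) in 20 mM phosphate pH 7.0 with 0.01% (detergent screen) or 0.0001% Triton X-100 was preincubated with compounds for 15 min at room temperature. Nitrocefin was then added from an 800 uM solution, and hydrolysis was followed at 480 nm.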
Potency is read from the fitted curve at half-maximal effect; tags tell the direction and shape of the fitted curve.

Chain of UniProt P00811 (P00811 whole entry, looked up): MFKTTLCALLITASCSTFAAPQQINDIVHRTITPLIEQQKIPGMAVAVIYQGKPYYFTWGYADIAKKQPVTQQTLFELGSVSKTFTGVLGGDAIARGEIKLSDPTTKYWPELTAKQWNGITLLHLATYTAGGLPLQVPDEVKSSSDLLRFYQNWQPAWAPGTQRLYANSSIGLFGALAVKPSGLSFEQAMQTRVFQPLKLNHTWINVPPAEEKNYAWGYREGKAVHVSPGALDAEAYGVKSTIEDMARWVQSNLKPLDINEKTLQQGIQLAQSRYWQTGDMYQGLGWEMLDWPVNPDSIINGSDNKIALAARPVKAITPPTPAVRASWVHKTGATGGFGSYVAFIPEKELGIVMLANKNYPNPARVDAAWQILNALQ

Structure (SMILES)	activity change, negative = inhibition	Potency
Cc1nc(Cl)sc1C(=O)Nc1ccccc1Cl	inactive: 2.87%	–
CC(=O)c1ccc(OCC(=O)N2CCN(S(=O)(=O)c3ccc(C)cc3C)CC2)cc1	inactive: 10%	–
Cc1ccc(N2CC(c3nc4ccccc4[nH]3)CC2=O)c(C)c1 (centres undefined)	–	inconclusive [inhibitor, full curve, poor fit]
CC1=C(C(=O)NC2CCCCC2C)C2(CCC(C)CC2)OC1=O (centres undefined)	–	inconclusive [inhibitor, full curve, poor fit]
COCCCNC(=O)c1ccc(N2CCOCC2)c(NS(=O)(=O)c2ccc(OC)cc2)c1	inactive: -9.85%	–
COC(=O)c1ccccc1NC(=O)C1CCN(C(=O)c2cc(OC)c(OC)c(OC)c2)CC1	–	inconclusive [inhibitor, full curve, poor fit]
O=C(Nc1ccc2oc(-c3ccccc3)nc2c1)c1ccc2ccccc2c1	–	inconclusive [inhibitor, single point]
Cc1c(-c2cccc(Cl)c2)nc2ccccc2c1C(=O)NC1CC1	inactive: 10.9%	–
Cc1c(NS(=O)(=O)c2ccc(N(C)C3CCCCC3)c([N+](=O)[O-])c2)c(=O)n(-c2ccccc2)n1C	inactive: -4.38%	–
CCCCOc1ccc(C(=O)NCC(=O)N2CC=C(c3ccccc3)CC2)cc1	–	inconclusive [inhibitor, full curve, poor fit]
CC(C)CN(C(=O)COC(=O)c1ccccc1Sc1ccccc1C#N)C1CCS(=O)(=O)C1 (centres undefined)	inactive: 0.985%	–
O=C1NC(=S)S/C1=C1\Sc2ccccc2N1CCCS(=O)(=O)O	–	inconclusive [inhibitor, partial curve, poor fit]
CCc1cc(C(=O)OC)c(NC(=O)C2CC(=O)NN2Cc2ccccc2)s1 (centres undefined)	inactive: 4.16%	–
O=C(NNC(=O)C1COc2ccccc2O1)c1ccccc1 (centres undefined)	–	inconclusive [inhibitor, full curve]
N#Cc1cn(Cc2cccc(Cl)c2)c2ccccc12	inactive: -12.5%	–
COc1ccc(CN(C(=O)c2ccccc2F)C2CCS(=O)(=O)C2)cc1 (centres undefined)	inactive: -0.508%	–
CCN1C(=O)[C@H]2[C@@H](c3ccc(-c4ccc5c(c4)OCO5)c(OC)c3)N[C@@](Cc3ccccc3)(C(=O)OC)[C@H]2C1=O	–	inconclusive [inhibitor, single point]
O=C1NC(=O)c2cc(Br)cc3cccc1c23	inactive: -9.81%	–
Cc1ccc(-c2nc(C3CCN(S(=O)(=O)c4ccc(C(C)(C)C)cc4)CC3)no2)cc1	–	inconclusive [inhibitor, partial curve, poor fit]
COc1ccc(S(=O)(=O)N2CCCCCC2)cc1NC(=O)CC1OC(=O)c2ccccc21 (centres undefined)	–	inconclusive [inhibitor, full curve, poor fit]
Cc1n[nH]c(=S)c2nn(-c3ccccc3)c(C)c12	–	inconclusive [inhibitor, full curve, poor fit]
O=C(N[C@@H](Cc1ccccc1)C(=O)OCc1ccccc1)c1nc[nH]c1C(=O)NC(c1ccccc1)c1ccccc1	inactive: 4.28%	–

Structure (SMILES)	activity change, negative = inhibition	Potency
CCc1nnc(SCc2nc(-c3ccccc3Cl)oc2C)c2cc3sc(C)cc3n12	inactive: 19.3%	–
O=C(CSc1nc(Nc2ccccc2)nc(N2CCOCC2)n1)Nc1ccc([N+](=O)[O-])cc1	–	inconclusive [inhibitor, full curve, poor fit]
COc1cc(/C=N/NC(=O)c2sc(N)c(C#N)c2C)ccc1O	–	inconclusive [inhibitor, partial curve]
O=C1CCC(C(=O)N2CCCC(Nc3ccc(F)cc3)C2)=NN1 (centres undefined)	–	inconclusive [inhibitor, full curve, poor fit]
CCOc1ccc2[nH]c(=O)c(CN(CCO)C(=O)c3ccc(OC)c(OC)c3)cc2c1	–	inconclusive [inhibitor, single point]
CCN(CC(=O)NCc1cccs1)C(=O)c1cccc(S(=O)(=O)NC)c1	–	inconclusive [inhibitor, partial curve, poor fit]
COc1ccc(Cl)c(Cn2c(NCCCN(C)C)nc3c2c(=O)n(C)c(=O)n3C)c1	–	inconclusive [inhibitor, full curve, poor fit]
COc1ccc(NC(=O)CCS(=O)(=O)c2cccc3nonc23)cc1	inactive: 1.19%	–
COc1cc(/C=N/N(c2ccccc2)c2ccccc2)ccc1O	–	inconclusive [inhibitor, full curve, poor fit]
C=CCn1c(=O)c(C(=O)NCc2ccccc2)c(O)c2ccccc21	–	inconclusive [inhibitor, full curve, poor fit]
Cc1ccc(C(C)(C)C)c(SCC(=O)Nc2nnc(C)s2)c1	inactive: -0.998%	–
CC(C)c1ccc(NC(=O)C2CCC(CNC(=O)[C@@H]3Cc4ccccc4CN3)CC2)cc1 (some centres undefined)	inactive: 2.16%	–
COc1ccc(C)cc1NC(=O)C(=O)N1CCCC1	inactive: -10%	–
CC(C)OCC(O)CCc1n[nH]c(=S)n1-c1ccccc1 (centres undefined)	–	inconclusive [inhibitor, full curve, poor fit]
c1ccc(Nc2nc(N3CCOCC3)c3ccccc3n2)cc1	–	inconclusive [inhibitor, partial curve, poor fit]
O=C1CCCc2sccc2N1	inactive: 11.6%	–
CCOc1ccc(-c2c(C(=O)N/N=C/c3ccoc3)nnn2-c2nonc2N)cc1	–	inconclusive [inhibitor, full curve, poor fit]
CCOC(=O)Cc1cc(C(=O)Nc2ccc(Br)cc2)sc1-c1ccc(C)cc1	inactive: 26.8%	–
COc1ccc2c(c1OC)C(=O)OC2N1C(=O)CC[C@H]1C(=O)Nc1ccc(F)cc1F (some centres undefined)	–	inconclusive [inhibitor, full curve, poor fit]
S=c1[nH]nc(-c2ccc(Br)cc2)n1Cc1ccco1	inactive: -3.5%	–
O=C(COC(=O)C1(c2ccccc2F)CCCC1)NCc1ccc2c(c1)OCO2	–	inconclusive [inhibitor, partial curve, poor fit]
O=C(Nc1ccc2c(c1)OCCO2)c1ccncc1	–	inconclusive [inhibitor, full curve, poor fit]
